Test results: PubChem BioAssay (Tox21)
Several values for one entry are separate records, joined by “and”; a condition that tells them apart may be missing. Equal entries are not always repeated. Inconclusive means that the source gave no clear call. Such entries were picked first, then a sample of the others. A call without a number means that no potency is given here. For some of these results: Where the call is inconclusive, the potency comes from a doubtful curve fit. Activity calls are given as the source filed them. Unless noted, calls follow the shape of the dose curve; as a rule, active = well fitted curve in the direction sought with a large enough effect in the repeat runs; inconclusive = weak or mixed curves; inactive = no such curve, though single readings can be large; an effect the other way counts as inactive or inconclusive.

Assays:
[1] = target: Androgen receptor (Homo sapiens) (UniProt P10275); assay: qHTS assay to identify small molecule antagonists of the androgen receptor (AR) signaling pathway (AID 743035; active = well fitted inhibition curve with a large enough effect in the signal ratio in the repeat runs, not every such curve was filed as active; inconclusive = weak or mixed curves, or effect the other way; inactive = no such curve, though single readings can be large or run the other way; the % refers to the signal ratio); details: HEK293 AR-UAS-bla, R1881-stimulated, beta-lactamase FRET, 16 h; activity change, negative = inhibition: at 58.5 µM (top of the series) unless noted
How it was run: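 Cell line: GeneBLAzer AR-UAS-bla GripTite (HEK293). Stimulus: R1881 added after compound. Exposure: 16 h, 37C, 5% CO2. Readout: LiveBLAzer B/G FRET fluorescence after 2 h at room temperature.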

[2] = target: Luciferin 4-monooxygenase (Photinus pyralis) (UniProt P08659); assay: qHTS assay to identify small molecule inhibitors of firefly luciferase (AID 1224835); also: nearly all actives have a fitted effect of over 25% in size
How it was run: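 Quantitative HTS format; KM concentrations of both substrates. Purified P. pyralis FLuc activity quantified from luminescence images.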

[3] = qHTS assay for small molecule agonists of the p53 signaling pathway - cell viability (AID 651633; calls by dose curve; also: potency is read from the fitted curve at half-maximal effect; nearly all actives have a fitted effect of over 30% in size)
How it was run: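 p53RE-bla cells, seeded at 4,000 per well and rested 5 h at 37 C/5% CO2, received compounds in DMSO for 16 h at 37 C. CellTiter-Glo was then added, and luminescence was read after 30 min at room temperature to gauge cytotoxicity.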

[4] = target: Estrogen receptor (Homo sapiens) (UniProt P03372); assay: qHTS assay to identify small molecule agonists of the estrogen receptor alpha (ER-alpha) signaling pathway (AID 743075; calls by dose curve;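 also: HEK293 GripTite cells with ER-alpha and UAS-driven beta-lactamase reporter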); details: HEK293 ER-alpha-UAS-bla, beta-lactamase FRET ratio, 18 h; activation: at 70.1 µM (top of the series)
[5] = qHTS assay for small molecules that induce genotoxicity in human embryonic kidney cells expressing luciferase-tagged ATAD5 (AID 651632); also: nearly all actives have a fitted effect of over 15% in size
How it was run: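 Genotoxicity read-out via ATAD5-luciferase: HEK293T cells, 16 hr compound incubation at 37C, Amplite detection.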

[6] = qHTS assay for small molecules that induce genotoxicity in human embryonic kidney cells expressing luciferase-tagged ATAD5 - cell viability (AID 651634; calls by dose curve; also: nearly all actives have a fitted effect of over 25% in size)
How it was run: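 Live-cell protease activity (CellTiter-Fluor, fluorescence) indicates viability. HEK293T cells with luciferase-tagged ATAD5; 15.5 hr compound treatment at 37C.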

[7] = qHTS assay to identify small molecule antagonists of the farnesoid-X-receptor (FXR) signaling pathway - cell viability counter screen (AID 743221; active = well fitted cell-killing curve with a large enough effect in the repeat runs, not every such curve was filed as active; inconclusive = weak or mixed curves, or effect the other way; inactive = no such curve, though single readings can be large or run the other way; also: nearly all actives have a fitted effect of over 50% in size; also: potency is read from the fitted curve at half-maximal effect); details: FXR-bla HEK293T viability, CellTiter-Glo luminescence, 16 h; activity change, negative = cytotoxicity: at 62.6 µM (top of the series) unless noted
How it was run: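 Compound effects on cell number were measured as CellTiter-Glo luminescence in HEK 293T cells expressing FXR-UAS-bla, after 16 h at 37 C with 50 uM CDCA (final).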

[8] = tested on: thyroid hormone receptor (rat, GH3 cells); assay: qHTS assay to identify small molecule agonists of the thyroid receptor (TR) signaling pathway (AID 743066; calls by dose curve; also: potency is read from the fitted curve at half-maximal effect); details: GH3.TRE-Luc cells, TR agonist luciferase, 24 h; activation: at 83.9 µM (top of the series) unless noted
[9] = target: Estrogen receptor (Homo sapiens) (UniProt P03372); assay: qHTS assay to identify small molecule antagonists of the estrogen receptor alpha (ER-alpha) signaling pathway using the BG1 cell line in the presence of 0.1 nM 17-beta-estradiol (AID 1259244); also: nearly all actives have a fitted effect of over 50% in size
How it was run: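 Quantitative high-throughput screen in VM7Luc4E2 cells: compound plus 0.1 nM E2 (final), 22 h, 37C, 5% CO2; ONE-Glo added, 30 min room temperature, luminescence measured.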

[10] = qHTS assay to identify small molecule antagonists of the estrogen related receptor signaling pathway with the pleiotropic PPARgamma coactivator (PGC) from Tox21 10K library (AID 1224841; call rule not given here; also: actives are mostly falling curves and most rising ones were filed inactive; nearly all actives have a fitted effect of over 50% in size)
How it was run: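 Compound exposure ran 18 hours at 37 C in PGC/ERR cells (2,000/well) that had first rested 6 hours in a 37 C/5% CO2 incubator. Luciferase activity was then detected with One-Glo after a 30-minute room-temperature step.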

[11] = qHTS assay to identify small molecule agonists of the estrogen receptor alpha (ER-alpha) signaling pathway in the presence of an antagonist - cell viability counter screen (AID 1259386);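 also: cells exposed to compounds for 22 h at 37 °C before the viability read; nearly all actives have a fitted effect of over 30% in size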; also: potency is read from the fitted curve at half-maximal effect
How it was run: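 Fluorescent CellTiter-Fluor viability signal from VM7Luc4E2 cells, with the reagent added during the final hour of a 22hr compound exposure at 37C in the presence of 10.0nM ICI-182,780.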

[12] = qHTS assay for small molecule agonists of the antioxidant response element (ARE) signaling pathway - cell viability counter screen (AID 743203; calls by dose curve; also: nearly all actives have a fitted effect of over 55% in size; also: potency is read from the fitted curve at half-maximal effect); details: ARE-bla HepG2 viability, CellTiter-Glo luminescence, 16 h; viability change, negative = cytotoxic: at 73.3 µM (top of the series)
How it was run: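 Cells (ARE-bla HepG2, 2,000/well) receive DMSO-dissolved compounds after a 5 hrs rest. Plates incubate 16 hrs at 37C/5% CO2. CellTiter-Glo luminescence is then recorded after 30 min at room temperature.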

[13] = qHTS assay to identify small molecule antagonists of the androgen receptor (AR) signaling pathway - cell viability counter screen (AID 743033; also: nearly all actives have a fitted effect of over 45% in size; also: potency is read from the fitted curve at half-maximal effect); details: AR-bla HEK293 viability, CellTiter-Glo luminescence, 16 h; activity change, negative = cytotoxicity: at 58.5 µM (top of the series) unless noted
[14] = qHTS assay to identify small molecule HDAC inhibitors (AID 1259364); also: potency is read from the fitted curve at half-maximal effect; nearly all actives have a fitted effect of over 45% in size
How it was run: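 Endogenous HDAC class I/II activity was measured in wild-type HCT-116 cells by HDAC-Glo luminescence after 2 h compound treatment.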

[15] = qHTS assay to identify small molecule antagonists of the estrogen related receptor (ERR) signaling pathway from Tox21 library (AID 1224848); also: nearly all actives have a fitted effect of over 50% in size; also: potency is read from the fitted curve at half-maximal effect
How it was run: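 Screening used an ERR reporter line supplied by NTP, exposed for 18 h at 37 C to library compounds delivered in DMSO. Signal was luciferase luminescence developed with ONE-Glo at room temperature for 30 min.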

[16] = qHTS RealTime-Glo MT Cell Viability Assay in HEK293 cells - 0 hour (AID 1224880); also: nearly all actives have a fitted effect of over 45% in size; also: potency is read from the fitted curve at half-maximal effect; as to activity change, negative = cytotoxicity: top concentration of the series differs between compounds
How it was run: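 qHTS format; HEK293 cells with NanoLuc/prosubstrate reagent, 37 C/5% CO2 for 5 h pre-dosing; compounds 23 nL in DMSO; luminescence at each time point reflects viable cells.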

[17] = A CellTox Green Cytotoxicity Assay to monitor cytotoxicity in HEK293 cells - 32 hour (AID 1224881); also: nearly all actives have a fitted effect of over 40% in size; also: potency is read from the fitted curve at half-maximal effect
How it was run: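 Each value comes from one timepoint of a single continuous run in which HEK293 cells with CellTox Green were exposed to compound for up to 40 h at 37 C, dye fluorescence rising with cell death.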

[18] = A CellTox Green Cytotoxicity Assay to monitor cytotoxicity in HepG2 cells - 8 hour (AID 1224890); also: nearly all actives have a fitted effect of over 45% in size; also: potency is read from the fitted curve at half-maximal effect
How it was run: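 Continuous culture of HepG2 cells with a membrane-impermeant DNA dye; rising fluorescence marks dead cells. Compound exposure lasted up to 40 h at 37 C, with reads every 8 h from 0 h.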

[19] = qHTS assay to identify small molecule agonists of the androgen receptor (AR) signaling pathway in the presence of an antagonist - cell viability counter screen (AID 1259379); also: nearly all actives have a fitted effect of over 25% in size; also: potency is read from the fitted curve at half-maximal effect;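 as to activity change, negative = cytotoxicity: MDA-kb2 human breast cancer cells carrying an MMTV luciferase reporter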
How it was run: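 In MDA-kb2 cells (human breast carcinoma, MMTV-luciferase), compounds at 15 concentrations plus 3.0uM nilutamide; 16 hr, 37C, 0% CO2; CellTiter-Fluor fluorescence read for viability.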

[20] = target: Bile acid receptor (Homo sapiens) (UniProt Q96RI1); assay: qHTS assay to identify small molecule agonists of the farnesoid-X-receptor (FXR) signaling pathway (AID 743220; active = well fitted activation curve with a large enough effect in the signal ratio in the repeat runs, not every such curve was filed as active; inconclusive = weak or mixed curves, or effect the other way; the % refers to the signal ratio; also: potency is read from the fitted curve at half-maximal effect); details: HEK293T FXR-UAS-bla, beta-lactamase FRET ratio, 16 h; activation: at 62.6 µM (top of the series) unless noted
How it was run: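 Beta-lactamase reporter under UAS control in GeneBLAzer FXR HEK 293T cells (5000/well) measured with LiveBLAzer FRET substrate after 2 h at room temperature. Compound exposure lasted 16 h at 37C.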
Tags tell the direction and shape of the fitted curve or compound fluorescence and quenching.

Sequence of UniProt P08659 (P08659 whole entry, looked up): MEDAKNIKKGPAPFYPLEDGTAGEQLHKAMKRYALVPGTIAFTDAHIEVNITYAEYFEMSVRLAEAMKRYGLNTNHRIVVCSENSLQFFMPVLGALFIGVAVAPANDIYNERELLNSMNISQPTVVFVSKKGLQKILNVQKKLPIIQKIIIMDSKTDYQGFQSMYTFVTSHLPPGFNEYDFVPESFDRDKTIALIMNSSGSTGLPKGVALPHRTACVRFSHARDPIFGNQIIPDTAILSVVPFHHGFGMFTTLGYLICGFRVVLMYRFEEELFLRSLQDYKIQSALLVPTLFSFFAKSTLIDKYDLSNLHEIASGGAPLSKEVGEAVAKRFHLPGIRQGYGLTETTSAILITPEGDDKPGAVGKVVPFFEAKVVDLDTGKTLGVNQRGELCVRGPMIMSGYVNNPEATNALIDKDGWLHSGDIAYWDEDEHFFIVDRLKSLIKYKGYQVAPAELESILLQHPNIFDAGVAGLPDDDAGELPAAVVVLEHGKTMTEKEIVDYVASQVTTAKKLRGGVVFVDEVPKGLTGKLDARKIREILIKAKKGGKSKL
Sequence of UniProt P03372 (P03372 whole entry, looked up): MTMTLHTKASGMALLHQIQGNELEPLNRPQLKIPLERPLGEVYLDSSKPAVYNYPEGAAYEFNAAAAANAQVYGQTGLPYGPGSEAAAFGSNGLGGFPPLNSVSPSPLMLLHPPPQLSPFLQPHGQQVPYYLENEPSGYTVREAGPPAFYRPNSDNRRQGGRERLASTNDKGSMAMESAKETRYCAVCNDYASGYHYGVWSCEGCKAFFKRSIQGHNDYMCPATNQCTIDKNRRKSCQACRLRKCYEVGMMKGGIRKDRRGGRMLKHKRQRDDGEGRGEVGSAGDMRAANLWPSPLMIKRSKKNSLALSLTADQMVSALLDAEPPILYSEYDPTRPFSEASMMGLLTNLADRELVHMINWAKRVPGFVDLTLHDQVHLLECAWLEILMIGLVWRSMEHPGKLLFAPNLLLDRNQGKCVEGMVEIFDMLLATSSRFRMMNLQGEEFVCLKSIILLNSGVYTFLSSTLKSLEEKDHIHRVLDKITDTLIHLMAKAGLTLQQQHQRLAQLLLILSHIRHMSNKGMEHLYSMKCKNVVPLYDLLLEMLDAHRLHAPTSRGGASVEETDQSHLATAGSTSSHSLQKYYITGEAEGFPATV
Sequence of UniProt P10275 (P10275 whole entry, looked up): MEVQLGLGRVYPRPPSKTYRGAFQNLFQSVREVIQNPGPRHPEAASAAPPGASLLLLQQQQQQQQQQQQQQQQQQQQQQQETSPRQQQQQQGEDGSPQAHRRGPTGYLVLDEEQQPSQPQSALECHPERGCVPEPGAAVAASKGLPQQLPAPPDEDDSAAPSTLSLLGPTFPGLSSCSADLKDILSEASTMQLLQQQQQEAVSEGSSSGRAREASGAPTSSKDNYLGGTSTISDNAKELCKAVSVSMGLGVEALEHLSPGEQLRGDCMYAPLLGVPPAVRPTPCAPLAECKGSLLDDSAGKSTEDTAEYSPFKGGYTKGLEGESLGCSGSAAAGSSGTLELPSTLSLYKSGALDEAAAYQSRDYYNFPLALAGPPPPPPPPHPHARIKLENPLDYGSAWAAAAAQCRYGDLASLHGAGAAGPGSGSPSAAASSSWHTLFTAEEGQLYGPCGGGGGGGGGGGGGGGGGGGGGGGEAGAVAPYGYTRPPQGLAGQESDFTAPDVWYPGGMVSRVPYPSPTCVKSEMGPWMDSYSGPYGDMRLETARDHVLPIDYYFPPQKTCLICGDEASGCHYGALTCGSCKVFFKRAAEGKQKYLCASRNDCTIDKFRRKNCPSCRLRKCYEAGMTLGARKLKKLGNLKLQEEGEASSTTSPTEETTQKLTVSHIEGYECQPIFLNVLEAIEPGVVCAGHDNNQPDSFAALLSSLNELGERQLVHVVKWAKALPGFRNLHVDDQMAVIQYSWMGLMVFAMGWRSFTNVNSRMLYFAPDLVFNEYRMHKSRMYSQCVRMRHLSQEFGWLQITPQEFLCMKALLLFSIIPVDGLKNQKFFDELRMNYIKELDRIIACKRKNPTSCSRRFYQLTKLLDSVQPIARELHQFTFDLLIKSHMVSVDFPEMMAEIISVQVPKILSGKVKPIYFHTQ
Sequence of UniProt Q96RI1 (Q96RI1 whole entry, looked up): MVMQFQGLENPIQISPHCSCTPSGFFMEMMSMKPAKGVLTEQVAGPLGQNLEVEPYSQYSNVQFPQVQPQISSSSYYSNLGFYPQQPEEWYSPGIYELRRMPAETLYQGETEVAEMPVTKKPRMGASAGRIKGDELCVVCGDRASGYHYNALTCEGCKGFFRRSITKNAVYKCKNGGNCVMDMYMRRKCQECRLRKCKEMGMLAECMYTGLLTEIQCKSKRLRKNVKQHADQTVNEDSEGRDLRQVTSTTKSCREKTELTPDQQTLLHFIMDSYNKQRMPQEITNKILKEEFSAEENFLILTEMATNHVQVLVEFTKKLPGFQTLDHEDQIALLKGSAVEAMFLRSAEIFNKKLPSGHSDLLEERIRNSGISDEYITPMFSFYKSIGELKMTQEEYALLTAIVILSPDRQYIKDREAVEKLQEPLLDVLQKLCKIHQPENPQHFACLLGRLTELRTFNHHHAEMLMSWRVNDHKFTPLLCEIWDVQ

Compound: CC(=O)OCc1ccccc1
- Potency [1]: inactive
- Potency [2]: inactive

Compound: CCC[Si](OC)(OC)OC
- activity change, negative = inhibition [1]: inconclusive: 6.74%

Compound: CCCOC(OCCC)OCCC
- Potency [3]: inconclusive: 77 µM [cytotoxic, partial curve, poor fit]

Compound: CC(C)(O)C(=O)c1ccc(OCCO)cc1
- Potency [4]: inactive

Compound: C=C(C)C(=O)OCCCCCCCCCCCCCCCCCC
- Potency [5]: inactive
- Potency [6]: inactive

Compound: C=CC(=O)NCOCC(C)C
- Potency [7]: inconclusive: 61.6 µM [rising, single point]

Compound: CC(O)C(C)O (stereo not drawn)
- Potency [8]: inconclusive: 54.9 µM [activator, partial curve]

Compound: O=c1c2ccccc2nnn1CCl
- Potency [9]: inactive

Compound: CCCCC(CC)COC(=O)c1ccc(C(=O)OCC(CC)CCCC)cc1 (stereo not drawn)
- Potency [10]: inactive

Compound: CCOC(=O)OCC
- Potency [7]: inactive

Compound: CCCCNc1ccccc1
- Potency [5]: inactive
- Potency [1]: inactive

Compound: CCC1C(=O)OCC1Cc1cncn1C (stereo not drawn)
- Potency [11]: inactive

Compound: C[Si](C)=O
- viability change, negative = cytotoxic [12]: inactive: -8.17% [at 8.36 µM]

Compound: O=S(=O)(O)c1cc(O)c2ccc(Nc3ccccc3)cc2c1
- Potency [13]: inactive
- Potency [11]: inconclusive: 61.1 µM [cytotoxic]

Compound: Cc1cc(C)n(CO)n1
- activation [8]: inconclusive: 3.23% [phenotype inactive]

Compound: CCOC(C)(C)C
- Potency [12]: inactive

Compound: CC/C=C\CC/C=C/C(OCC)OCC
- Potency [7]: inactive

Compound: O=C1c2ccccc2C(=O)c2c(Cl)cccc21
- Potency [14]: inconclusive: 12.9 µM [inhibitor, partial curve]

Compound: CC1=CC(=O)CC(C)(C)C1=O
- Potency [14]: inconclusive: 35.1 µM [inhibitor, partial curve]

Compound: CCCCN(CCO)CCO
- Potency [15]: inactive

Compound: CC(C)C(=O)OCc1ccccc1
- Potency [16]: inconclusive: 54.9 µM [rising, single point]
- Potency [17]: inconclusive: 54.9 µM [activator, single point]
- Potency [18]: inconclusive: 54.9 µM [activator, single point]

Compound: OC(CCN1CCCCC1)(c1ccccc1)C1CC2C=CC1C2 (stereo not drawn)
- Potency [4]: inactive
- Potency [19]: inconclusive: 26.6 µM [cytotoxic, partial curve]

Compound: CN1CCC(OC(c2ccccc2)c2ccccc2)CC1
- Potency [9]: inactive

Compound: COC(=O)c1cccc(Cl)c1
- Potency [4]: inactive
- Potency [16]: inactive

Compound: CN(C)CC[C@@H](c1ccc(Br)cc1)c1ccccn1
- Potency [7]: inconclusive: 33.5 µM [falling, single point]

Compound: CN(C)CCOC(=O)COc1ccc(Cl)cc1
- Potency [7]: inconclusive: 61.5 µM [falling, single point]
- Potency [2]: inactive

Compound: Oc1cc(O)c2c(c1)O[C@H](c1ccc(O)c(O)c1)[C@H](O)C2
- Potency [6]: inactive

Compound: COc1ccc(Cl)cc1C
- Potency [6]: inactive

Compound: Clc1cccnc1
- Potency [2]: inactive

Compound: CC(=O)CC(C)=O
- Potency [11]: inactive

Compound: NS(=O)(=O)c1cc2c(cc1C(F)(F)F)NCNS2(=O)=O
- Potency [6]: inactive
- Potency [13]: inconclusive: 0.811 µM [cytotoxic, full curve, poor fit]
- Potency [20]: inconclusive: 0.133 µM [rising, partial curve, poor fit]

Compound: CCC(=O)Oc1ccc2c(c1)CC[C@@H]1[C@@H]2CC[C@@]2(C)[C@H]1C[C@@H](OC(=O)CC)[C@@H]2OC(=O)CC
- Potency [18]: inconclusive: 26.8 µM [activator, single point]

Compound: CCCCN(CCCC)CCCOC(=O)c1ccc(N)cc1
- Potency [20]: inconclusive: 84.1 µM [rising, partial curve, poor fit]

Compound: C=C[C@H]1CN2CC[C@H]1C[C@H]2[C@H](O)c1ccnc2ccc(OC)cc12
- Potency [12]: inconclusive: 27.3 µM [cytotoxic, full curve, poor fit]
- Potency [19]: inconclusive: 61.1 µM [cytotoxic, partial curve, poor fit]

Compound: CO[Si](CCCNCCN)(OC)OC
- Potency [5]: inactive
- activity change, negative = inhibition [1]: inconclusive: -43.4% [at 78.9 µM]

Compound: CCCCOC(=O)CC(CC(=O)OCCCC)(OC(C)=O)C(=O)OCCCC
- Potency [15]: inconclusive: 21.1 µM [inhibitor, partial curve, poor fit] and inconclusive: 19.5 µM [inhibitor, partial curve] and inconclusive: 21.7 µM [inhibitor, partial curve]
- Potency [18]: inactive

Compound: O=CN1CCCCC1
- Potency [18]: inactive

Compound: CC(=O)OC(C)(C)Cc1ccccc1
- Potency [19]: inactive

Compound: CCOC(=O)OC(C)OC1=C(C(=O)Nc2ccccn2)N(C)S(=O)(=O)c2ccccc21 (stereo not drawn)
- Potency [2]: inactive
- Potency [17]: inactive

Compound: CC(=O)CC(=O)OC(C)(C)C
- Potency [3]: inconclusive: 12.2 µM [cytotoxic, partial curve, poor fit]

Compound: BrCCCCCBr
- Potency [8]: inactive
- Potency [10]: inactive
- Potency [9]: inactive
